# Test results reported in article PMC4336329 (PLoS ONE, 2015).
# Among all 310,000 compounds or so, about 14,000 (4.5%) showed an effect of 50% or more. The effect is printed as a negative number. Some of the results follow.
# Biological target: human ether-à-go-go-related gene (hERG) potassium channel (human, UniProt Q12809)
# Assay: primary screen, population patch clamp on CHO cells stably expressing hERG
# 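Note: peak tail current of the secondary pulse compared with the same well before compound.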
# Sequence of human ether-à-go-go-related gene (hERG) potassium channel (Q12809 whole entry, looked up): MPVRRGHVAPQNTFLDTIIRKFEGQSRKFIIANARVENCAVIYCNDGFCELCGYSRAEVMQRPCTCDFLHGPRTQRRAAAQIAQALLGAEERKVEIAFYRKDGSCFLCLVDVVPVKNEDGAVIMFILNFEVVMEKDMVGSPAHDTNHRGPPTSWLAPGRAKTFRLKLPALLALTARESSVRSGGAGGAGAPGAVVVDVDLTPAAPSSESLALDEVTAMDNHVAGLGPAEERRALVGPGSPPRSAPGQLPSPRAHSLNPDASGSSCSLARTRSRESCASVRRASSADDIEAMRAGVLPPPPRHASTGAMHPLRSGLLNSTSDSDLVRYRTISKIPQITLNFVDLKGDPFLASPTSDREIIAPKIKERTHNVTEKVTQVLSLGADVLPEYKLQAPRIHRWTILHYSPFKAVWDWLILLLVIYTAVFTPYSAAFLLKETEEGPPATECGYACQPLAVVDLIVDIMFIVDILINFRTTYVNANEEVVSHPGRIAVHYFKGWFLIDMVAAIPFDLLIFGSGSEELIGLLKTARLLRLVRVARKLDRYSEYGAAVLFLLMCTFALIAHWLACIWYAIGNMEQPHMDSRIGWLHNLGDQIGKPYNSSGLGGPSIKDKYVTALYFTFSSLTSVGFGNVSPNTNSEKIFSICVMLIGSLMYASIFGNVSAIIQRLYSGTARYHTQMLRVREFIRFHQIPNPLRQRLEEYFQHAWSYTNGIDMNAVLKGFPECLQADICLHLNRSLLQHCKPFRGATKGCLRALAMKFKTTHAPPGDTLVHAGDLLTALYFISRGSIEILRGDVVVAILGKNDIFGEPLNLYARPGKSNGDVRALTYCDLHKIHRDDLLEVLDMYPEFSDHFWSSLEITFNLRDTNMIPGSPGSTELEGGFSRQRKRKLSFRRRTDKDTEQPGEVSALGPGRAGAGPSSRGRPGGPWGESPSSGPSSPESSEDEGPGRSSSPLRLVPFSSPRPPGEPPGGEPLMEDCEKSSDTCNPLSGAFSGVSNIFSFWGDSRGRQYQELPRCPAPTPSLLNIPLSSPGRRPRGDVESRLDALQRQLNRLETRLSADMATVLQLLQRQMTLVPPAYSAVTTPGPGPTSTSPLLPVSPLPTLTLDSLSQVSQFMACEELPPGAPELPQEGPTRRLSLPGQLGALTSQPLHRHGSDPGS
row,Compound,"hERG current change (%, negative = inhibition) at 10uM"
1,O=C(c1ccc(F)cc1)N1CCCC(C(=O)N2CCc3ccccc3C2)C1 (stereo not shown),-1.07%
2,CCCCCCCC#Cc1ccccc1/C=N/S(=O)c1ccc(C)cc1 (stereo not shown),-5.22%
3,CCN(CC)CCCN=Cc1c(O)n(-c2ccccc2C)c(=O)c2ccccc12,-52.8%
4,COc1ccc(C(=O)Nc2ccccc2)cc1NC(=O)c1ccc([N+](=O)[O-])cc1,-56.8%
5,Cc1nn(-c2ccccc2)nc1C(=O)OCC(=O)N1CCC(C)CC1,-24.6%
6,COc1ccc(N(C(=O)Cc2cccs2)C2C=CS(=O)(=O)C2)cc1 (stereo not shown),-1.12%
7,O=C(C[n+]1cccc(/C=N/O)c1)N1CCCCCC1.[Cl-],21.9%
8,O=C(C1=C(O)C(=O)N(CCN2CCOCC2)C1c1ccc(F)cc1)c1cccs1 (stereo not shown),18.6%
9,CCOC(=O)C(NC(C)=O)(OCc1ccccc1)C(F)(F)F (stereo not shown),1.3%
10,COc1cc(NC(=O)CN2CCN(CC(=O)Nc3ccccc3OC)CC2)cc(OC)c1,0.0651%
11,CC(=O)c1cccc(NC(=O)Nc2ccc(C)cc2)c1,0.791%
12,COc1ccc(C(=O)NNC(=O)c2cc3ccccc3cc2O)cc1,16.1%
13,COc1cccc(NC(=O)CCN2CCC(C(N)=O)CC2)c1,3.31%
14,CC(=O)Nn1cc2c(c1-c1ccccc1)c(=O)n(C)c(=O)n2C,2.3%
15,COc1ccc(NC(=O)c2nc(S(=O)(=O)Cc3cccc(C)c3)ncc2Cl)c(OC)c1,22.4%
16,Cc1ccc(C(=O)OCC(=O)NCCN2C(=O)CSC2=O)cc1,3.87%
17,CCc1cc2c(=O)c(-c3nc4ccccc4n3C)c(C)oc2cc1OC(C)=O,2.05%
18,COC(=O)[C@@H]1OC(=O)[C@H]2O[C@@]23[C@@]1(C)CC[C@@H]1[C@@]2(C)C=CC(=O)OC(C)(C)[C@@H]2CC(=O)[C@]13C,29.3%
19,Brc1ccc(-c2ccc(/C=N/Nc3nncc(-c4ccccc4)n3)o2)cc1,19%
20,COc1cccc(NC(=O)c2cc(-c3ccncc3)nc3c(C)cc(C)cc23)c1,2.12%
21,COc1ccc(-n2c3c(cc(C(=O)Nc4cccc(C)n4)c2=O)C(=O)CC(C)(C)C3)cc1,8.15%
22,O=C(CSc1nc2[nH]ncc2c(=O)n1-c1ccccc1)c1ccc2c(c1)OCCO2,-6.39%

row,Compound,"hERG current change (%, negative = inhibition) at 10uM"
1,Cc1ccc(NC(=O)CSc2nnc3ccccn23)cc1,7.56%
2,CNCCc1ccccn1.Cl,7.88%
3,CCOC(=O)N1CCC(NC(=O)CCc2c(C)nc3nc(C)nn3c2C)CC1,2.61%
4,O=C(NCCCN1CCOCC1)C1CCC(=O)N1CCc1ccccc1 (stereo not shown),7.85%
5,CNC(=O)c1sc(Nc2cc(C)ccc2C)nc1C,4.83%
6,COC(=O)CCC(=O)NC(=S)Nc1ccc(S(=O)(=O)Nc2cc(OC)nc(OC)n2)cc1,22.5%
7,FC(F)(F)c1cnc2c(-c3ccc(Cl)cc3Cl)noc2c1,12.3%
8,Cc1cccc(NC(=O)Nc2ccc3c(c2)CCC3)c1,16.6%
9,Cc1cc([N+](=O)[O-])ccc1NC(=O)Nc1ccc(F)cc1F,19.2%
10,O=C(NCC1CC1)C1(C(F)(F)F)C/C(=C\Cc2ccccc2)CCCO1 (stereo not shown),7.58%
11,COc1cnc(-c2ccccn2)nc1NC(C)C,7.65%
12,Cc1cc(N2CCCCC2)n2nc(C)c(-c3ccccc3)c2n1,13.3%
13,C=CCn1c(SCC(=O)Nc2cccc(C(=O)OC)c2)nnc1C(C)NC(=O)c1cccs1 (stereo not shown),-29.9%
14,COc1ccc(C(C(=O)NC2CCCCC2)N(C(=O)CCl)c2ccc(Cl)cc2)cc1 (stereo not shown),-13.2%
15,Cc1ccc(/C=c2\sc3nc(-c4cccs4)nn3c2=O)o1,-1.84%
16,COc1cc2c(cc1NC(=O)c1cc(-c3ccncc3)nc3ccc(C)cc13)oc1ccccc12,-0.133%
17,O=C(Nc1nnc(SCC(=O)N2CCCCC2)s1)c1cccs1,4.86%
18,Cn1c(SCC(N)=O)nnc1C1CCN(S(=O)(=O)c2ccccc2C(F)(F)F)CC1,13.3%
19,CCCOc1ccc(C(=O)CCC(=O)OCC(=O)N2CC(=O)Nc3ccccc32)cc1,10.4%
20,[N-]=[N+]=N[C@@H](CCN1CC[C@H](O)CCC1=O)c1ccccc1,9.05%
21,Clc1ccc(OCc2nn[nH]n2)cc1,18%
